# Results taken from PubChem BioAssay AID504832 (National Center for Advancing Translational Sciences (NCATS), 2011).
# The whole screen tested about 310,000 compounds, of which about 18,000 (5.8%) were called active. Inconclusive means that the source gave no clear call. Such entries were picked first, then a sample of the others. Calls follow the shape of the dose curve; as a rule, active = well fitted inhibition curve with a large enough effect; inconclusive = small, poorly fitted or top-dose-only effect, or another doubt; inactive = no such curve, though single readings can be large or run the other way. No potency is given beside an inconclusive call; the fits are too rough.
# Assay: Primary qHTS for delayed death inhibitors of the malarial parasite plastid, 48 hour incubation
# Settings: P. falciparum luciferase growth in erythrocytes; series mostly up to 28.7 µM
# Procedure, shortened: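 Luciferase-expressing P. falciparum in infected erythrocytes (2% hematocrit, 0.1% parasitemia final) in RPMI 1640/0.5% Albumax were exposed to compound for 48 hours at 37 C, 5% CO2; growth read as luminescence.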
# Potency is read from the fitted curve at half-maximal effect; tags tell the direction and shape of the fitted curve.
row,Compound,Potency
1,Cc1cccc(OCCCCc2c(C)n[nH]c2C)c1,"inconclusive [inhibitor, single point]"
2,CCOc1ccc(NCc2nc3ccccc3n2CCOc2ccccc2)cc1,inactive
3,O=C(Nc1ccccc1N1CCN(C(=O)c2ccc(Cl)cc2)CC1)c1cccnc1,"inconclusive [inhibitor, partial curve]"
4,CCN(CC)CCCNC(=O)CSc1nc(C)cc(C)n1,inactive
5,Cc1ccccc1C(=O)NC(=S)N(C)C1CCCCC1,active: 14.7 µM
6,c1cc2c(cc1C1CCCCC1)c1c3n2CCCNC3CCC1 (stereo not given),"inconclusive [inhibitor, single point]"
7,O=C(O)CCCNc1ccc(S(=O)(=O)N2CCCCC2)cc1,inactive
8,CCCCNS(=O)(=O)c1ccc(OCC(=O)N2CCN(Cc3ccc4c(c3)OCO4)CC2)cc1,"inconclusive [inhibitor, partial curve]"
9,O/N=C/c1cc(Br)ccc1OCc1cccc(F)c1,inactive
10,N#Cc1c(-c2ccccc2)cc(-c2ccc(O)cc2)nc1N,"inconclusive [inhibitor, partial curve, poor fit]"
11,O=C(Nc1ccc(F)cc1)c1ccccc1Oc1ccc(C(F)(F)F)cc1[N+](=O)[O-],active: 10.4 µM
12,COC(=O)Nc1sc2nc(C)cc(C)c2c1-n1cccc1,"inconclusive [inhibitor, single point]"
13,CC(=O)NCCC(=O)Nc1nc(-c2ccccc2Cl)cs1,inactive
14,CCn1c2ccccc2c2nnc(SCc3ccc(C(=O)OC)o3)nc21,"inconclusive [inhibitor, partial curve, poor fit]"
15,Nc1nc(Br)c2c(F)cccc2c1-c1ccc(Cl)cc1,"inconclusive [inhibitor, single point]"
16,O=C(CCNS(=O)(=O)c1ccc(Br)s1)NC1CCCC1,"inconclusive [inhibitor, partial curve]"
17,CCOC(=O)C1(CCc2ccccc2)CCN(C(=O)c2cccc(C)n2)CC1,"inconclusive [inhibitor, partial curve, poor fit]"
18,O=C(Nc1ccccc1OC(=O)c1ccc(Cl)cc1)c1ccc(Cl)cc1,"inconclusive [inhibitor, partial curve, poor fit]"
19,Cc1cc(C(=O)COC(=O)c2ccccc2Br)c(C)n1CC1CCCO1 (stereo not given),inactive
20,CC(C)(C)C(=O)NCc1ccc(C(=O)CN2C(=O)NC3(CCCC3)C2=O)s1,"inconclusive [inhibitor, single point]"
